The campaign covered roughly 310,000 compounds. About 2,200 (0.71%) showed an effect of 50% or more. The effect is printed as a negative number. This is one part of the list.
target: human ether-à-go-go-related gene (hERG) potassium channel (human, UniProt Q12809); experiment: primary screen, population patch clamp on CHO cells stably expressing hERG
Sequence (Q12809 whole entry, looked up): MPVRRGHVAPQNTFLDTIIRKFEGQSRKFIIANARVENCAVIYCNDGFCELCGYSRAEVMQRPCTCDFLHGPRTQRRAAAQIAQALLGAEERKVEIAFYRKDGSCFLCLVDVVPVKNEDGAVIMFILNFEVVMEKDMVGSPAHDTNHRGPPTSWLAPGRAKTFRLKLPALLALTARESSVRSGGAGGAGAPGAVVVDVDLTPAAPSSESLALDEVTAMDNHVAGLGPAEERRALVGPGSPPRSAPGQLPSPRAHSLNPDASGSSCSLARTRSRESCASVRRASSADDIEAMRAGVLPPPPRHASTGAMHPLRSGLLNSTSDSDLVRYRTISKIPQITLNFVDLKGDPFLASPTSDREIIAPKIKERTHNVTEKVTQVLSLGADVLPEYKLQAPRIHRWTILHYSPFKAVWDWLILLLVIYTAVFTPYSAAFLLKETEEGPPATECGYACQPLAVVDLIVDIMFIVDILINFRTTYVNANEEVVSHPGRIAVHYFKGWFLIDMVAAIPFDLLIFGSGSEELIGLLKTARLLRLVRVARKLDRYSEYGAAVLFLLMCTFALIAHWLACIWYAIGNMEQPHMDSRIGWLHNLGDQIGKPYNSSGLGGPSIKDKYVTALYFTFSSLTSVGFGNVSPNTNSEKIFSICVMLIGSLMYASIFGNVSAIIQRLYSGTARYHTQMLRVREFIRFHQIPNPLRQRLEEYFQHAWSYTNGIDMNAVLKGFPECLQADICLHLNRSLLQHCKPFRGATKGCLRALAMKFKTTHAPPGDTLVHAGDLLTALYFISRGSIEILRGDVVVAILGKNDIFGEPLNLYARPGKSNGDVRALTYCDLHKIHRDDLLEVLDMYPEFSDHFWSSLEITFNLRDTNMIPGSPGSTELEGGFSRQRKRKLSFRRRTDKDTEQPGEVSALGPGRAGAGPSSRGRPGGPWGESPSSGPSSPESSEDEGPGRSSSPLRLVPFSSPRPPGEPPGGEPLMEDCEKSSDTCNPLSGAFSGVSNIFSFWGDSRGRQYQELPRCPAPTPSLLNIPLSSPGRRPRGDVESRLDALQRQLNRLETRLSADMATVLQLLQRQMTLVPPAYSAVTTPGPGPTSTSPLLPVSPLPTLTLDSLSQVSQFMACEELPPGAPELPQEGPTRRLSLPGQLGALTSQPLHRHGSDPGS

Compound	hERG current change (%, negative = inhibition) at 1uM
COc1ccccc1C(=O)NNC(=O)C(=O)NC(C)C	6.02%
OC[C@@H](O)C1OC2NC(=S)OC2C1O (stereo partly drawn)	9.58%
Cc1ccc(NC(=O)COC(=O)/C=C/c2ccccc2)cc1S(=O)(=O)N1CCOCC1	6.56%
COc1cccc(N2[C@@H](CC(=O)O)c3ccccc3S2(=O)=O)c1	19.9%
CC1=CC(C)(C)Nc2ccc(OC(=O)C(Cc3ccccc3)N3C(=O)C4CCCCC4C3=O)cc21 (stereo not drawn)	9.08%
C/C(=N\O)C(=O)NCCN1CCCCC1	3.26%
O=C(Nc1nc(-c2ccccn2)cs1)c1ccccc1-n1cnnn1	2.63%
Cc1cc(C)cc(N(C(=O)CNC(=O)c2cccs2)C(C(=O)NC2CCCC2)c2cccnc2)c1 (stereo not drawn)	14.3%
CCOc1cccc(C(=O)Nc2ccc3ccccc3c2)c1	17.6%
COC(=O)c1ccc2nc(NC(=O)C(C)C)sc2c1	7.46%
COc1cccc(C2=CC(=O)C[C@H](c3ccc(F)cc3)C2)c1	3.47%
COc1ccc(Cl)cc1NC(=O)C(C)OC(=O)C1=NNC(=O)CC1 (stereo not drawn)	9.19%
CCCc1n(CC(O)COC2CCCCC2)c2ccccc2[n+]1C.[I-] (stereo not drawn)	7.07%
CC(=O)Nc1ccc(N/C=C/C(=O)c2ccc(C)cc2)cc1	17.8%
CCN(CC(=O)NCc1cccs1)C(=O)c1ccc(S(=O)(=O)N(C)C)cc1	18.7%
COc1ccc(CN2CCNC(=O)C2CC(=O)N2CCCCO2)c(OC)c1 (stereo not drawn)	13.3%
CN(C(=O)c1cccc(Cl)c1)C1CCCN(Cc2ccccc2F)C1 (stereo not drawn)	7.33%
C/C=C(/C)C(=O)O[C@@H]1c2cc3c(c4c2[C@@]2(CO4)C(=O)C(OC)=C(OC)C=C2C[C@@H](C)[C@H]1C)OCO3	4.77%
O=C(Nc1ccsn1)c1ccc(Cl)cc1Cl	17.8%
COC(=O)CC(NC(=O)c1ccco1)c1ccc(C(C)C)cc1 (stereo not drawn)	9.91%
c1ccc(OCCSc2nnc3sc4ccccc4n23)cc1	13%
Nc1[nH]nc2nc3ccccc3cc12	16.9%

Compound	hERG current change (%, negative = inhibition) at 1uM
O=C(CN1CCOCC1)N/N=C/c1ccc(-c2cccc(Cl)c2Cl)o1	-48.8%
NC(=O)C1CCN(CC(O)COc2ccc(-c3ccccc3)cc2)CC1 (stereo not drawn)	4.59%
O=C1CN(C(=S)Nc2ccccc2Cl)CCN1	5.18%
CN1CCCCC1CCN1c2ccccc2Sc2ccc(S(C)=O)cc21.O=S(=O)(O)c1ccccc1 (stereo not drawn)	-25.3%
CC(=O)c1nc(N2C(=O)CC(Cc3cccc(C)c3)C2=O)sc1C (stereo not drawn)	-1.96%
CC1Cc2ccccc2N1C(=O)c1cccnc1 (stereo not drawn)	3.36%
CC(C)=CCOc1ccc2c(C)c(CC(=O)N3C[C@H]4C[C@@H](C3)c3cccc(=O)n3C4)c(=O)oc2c1C	-18.5%
O=S(=O)(c1ccccc1)N1CCN(C2CCN(Cc3ccccc3)CC2)CC1	-64.1%
O=C(O)C1CCCCC1C(=O)Nc1ccccc1Nc1ccccc1 (stereo not drawn)	-4.33%
COc1ccccc1-c1nnc(SCC(=O)Nc2ccc(N3CCOCC3)cc2)n1C	1.8%
COCC(=O)OCC(=O)c1cc(C)n(-c2ccc(Br)cc2)c1C	5.49%
CC(/C=N/NC(=O)CCn1nnc2ccccc21)=C\c1ccccc1	18.3%
CCOC(=O)N1CCC(N2C(=O)c3ccccc3C2Nc2cc(C(=O)OC)cc(C(=O)OC)c2)CC1 (stereo not drawn)	5.16%
Cc1cc2c(n1-c1ccc(C(N)=O)cc1)CC(C)(C)CC2=O	5.52%
CCCCOc1ccccc1NC(=O)CC1SC(=NCC)N(CC)C1=O (stereo not drawn)	12.2%
Cc1ccc(NC(=O)CN2C(=S)NC(C)(C)CC2C)cc1Cl (stereo not drawn)	13.7%
COc1ccc(CCNC(=O)CNC(=O)Cn2ccc3ccccc3c2=O)cc1OC	9.27%
NC(=O)c1ccc(-c2csnn2)cc1	1.23%
O=C(N1CCOCC1)N(CCN1CCOCC1)Cc1cccc(Cl)c1	5.16%
Cc1ccc(-c2nn(C)c(=O)c3ccccc23)cc1CNC(=O)CSc1nc2ccccc2o1	-0.172%
Cc1cccc(C(=O)Nc2cc(Cl)ccc2-n2cncn2)c1[N+](=O)[O-]	6.65%
O=C(O)CCC(=O)N1CCc2cc(S(=O)(=O)NCCc3ccc(Cl)cc3)ccc21	10.8%

Compound	hERG current change (%, negative = inhibition) at 1uM
Cn1c(=O)c2c(-c3ccccc3)n(Cc3cccnc3)cc2n(C)c1=O	14.3%
CCOc1ccc(CN2CCN(Cc3c(C)nn(CC)c3C)CC2CCO)cc1 (stereo not drawn)	-20.7%
O=C(NCc1cccs1)C(NS(=O)(=O)c1cccc2nsnc12)c1ccccc1 (stereo not drawn)	6.82%
COc1cccc(-c2csc(N3CCN(C(=O)Nc4ccc(F)cc4)CC3)n2)c1	0.939%
CCOc1ccc(N(CC(=O)N2CCC(Cc3ccccc3)CC2)S(C)(=O)=O)cc1	5.21%
CNc1cc(C)c(C#N)c2nc3ccccc3n12	3.69%
Cc1ccc(C)c(OCC(=O)Nc2cc(C)on2)c1	9.74%
COc1ccc(C(=O)Nc2ccnn2C2CCN(C(=O)CCC(F)(F)F)CC2)cc1	12.7%
Cc1ccc(C(C)(C)NC(=O)C2CCC(=O)N(Cc3ccccc3F)C2)cc1 (stereo not drawn)	22.3%
O=C(COC(=O)c1ccc(Cl)nc1)c1ccc2c(c1)OCCO2	13.9%
CCOC(=O)C1CCN(c2c(NCCCN(CC)c3ccccc3)c(=O)c2=O)CC1	8.8%
COc1ccc(S(=O)(=O)N2CCN(Cc3ccc(Cl)cc3)CC2)cc1	-4.05%
Cc1ccc(NC(=O)c2cccs2)cc1[N+](=O)[O-]	10.9%
CC(C)(C)C(=O)NCCN1C(=O)S/C(=C\c2ccc([N+](=O)[O-])cc2)C1=O	2.31%
Cc1ccccc1CS(=O)(=O)CC1(O)CCN(C(=O)c2cccc(C(F)(F)F)c2)CC1	14.2%
COc1ccc(N2CCN(CCNC(=O)C3CCN(S(=O)(=O)c4cccs4)CC3)CC2)cc1	-20.5%
Cc1ccccc1C1c2[nH]c3ccccc3c2CCN1CCCn1cccn1 (stereo not drawn)	6.62%
CN(Cc1ccccn1)Cc1nc(-c2ccc(Cl)cc2)no1	2.33%
O=C(NCCCN1CCOCC1)c1c(O)c2cc(Br)cc(Br)c2[nH]c1=O	0.873%
CCc1cccc(CC)c1NC(=O)c1ccccc1CCc1ccccc1	10.6%
CCCc1cc(=O)[nH]c(SC(CC)C(=O)Nc2ccccc2C#N)n1 (stereo not drawn)	1.57%
CCCCS(=O)(=O)N1CCC(C(=O)NCC2CCCO2)CC1 (stereo not drawn)	19.1%

Compound	hERG current change (%, negative = inhibition) at 1uM
CC(C)NC(=S)NC(c1ccccc1)(c1ccccc1)c1ccccc1	15.7%
Cc1cccc(-n2ncc3c(N4CCC5(CC4)OCCO5)ncnc32)c1	7.13%
CCC(=NCc1ccco1)c1c(O)n(Cc2ccccc2)c(=O)[nH]c1=O	6.41%
COc1ccc(N2CCN(C(=O)c3ccc(CS(=O)(=O)c4ccc(OC)cc4)o3)CC2)cc1	-20%
CC(=O)N(/N=C1/C(=O)Nc2ccccc21)c1ccccc1	16.7%
CCN1CCN(C(=O)c2cc(S(=O)(=O)Nc3ccc(S(C)(=O)=O)cc3)ccc2Cl)CC1	15.7%
COc1cc(/C=C(\C#N)C(=O)Nc2cccc3ncccc23)cc(OC)c1OC.Cl	14.9%
O=C(CCN1C(=O)[C@@H]2Cc3ccccc3CN2C1=O)N[C@H](Cc1ccccc1)C(=O)O	6.46%
Cc1ccc(N2C(=O)CC(NNC(=O)Cc3ccc(F)cc3)C2=O)cc1Cl (stereo not drawn)	11.6%
Cc1ccccc1OCC(=O)OCC(=O)Nc1ccc(S(N)(=O)=O)cc1	7.14%
O=C(CSc1nnnn1-c1ccccc1)CSc1nnnn1-c1ccccc1	10.2%
COc1cc(OC)cc(C(=O)N[C@H](C(=O)OCc2cc(=O)oc3cc(C)ccc23)C(C)C)c1	1.65%
CCN1CCN(c2ccc(S(=O)(=O)N3CCOCC3)cc2NC(=O)C(C)Oc2ccc(F)cc2)CC1 (stereo not drawn)	-11.2%
COC(=O)C1=C(C)N(CCc2ccc(OC)cc2)C(=O)C1	-8.24%
Cc1ccc(O)c(C2=NCCNC(C(F)(F)F)=C2)c1	5.32%
O=C(COC(=O)c1cncc(Br)c1)NCc1ccc(F)cc1	6.7%
CCOc1cc(/C=C2\SC(=NC)N(C)C2=O)c(Br)cc1OC(C)=O	13.5%
Cc1ccc(S(=O)(=O)Nc2ccc(O)c(Sc3ncn[nH]3)c2)cc1	10.2%
O=C(NCC(=O)N1CCN(S(=O)(=O)c2ccccc2F)CC1)c1ccc2ccccc2c1	7.24%
CCCC1Nc2ccc(C(=O)O)cc2C2C=CCC12 (stereo not drawn)	10.3%
CC(C)n1cc(CNC(=O)C2CCC(=O)N(Cc3ccccc3F)C2)cn1 (stereo not drawn)	16.8%
